# Reference: article PMC4336329 (PLoS ONE, 2015)
# Screen size: about 310,000 compounds; about 2,200 (0.71%) showed an effect of 50% or more. Effects have a minus sign here. This is one part of the list.
# Target: human ether-à-go-go-related gene (hERG) potassium channel (human, UniProt Q12809)
# Experiment: primary screen, population patch clamp on CHO cells stably expressing hERG
# Chain of human ether-à-go-go-related gene (hERG) potassium channel (Q12809 whole entry, looked up): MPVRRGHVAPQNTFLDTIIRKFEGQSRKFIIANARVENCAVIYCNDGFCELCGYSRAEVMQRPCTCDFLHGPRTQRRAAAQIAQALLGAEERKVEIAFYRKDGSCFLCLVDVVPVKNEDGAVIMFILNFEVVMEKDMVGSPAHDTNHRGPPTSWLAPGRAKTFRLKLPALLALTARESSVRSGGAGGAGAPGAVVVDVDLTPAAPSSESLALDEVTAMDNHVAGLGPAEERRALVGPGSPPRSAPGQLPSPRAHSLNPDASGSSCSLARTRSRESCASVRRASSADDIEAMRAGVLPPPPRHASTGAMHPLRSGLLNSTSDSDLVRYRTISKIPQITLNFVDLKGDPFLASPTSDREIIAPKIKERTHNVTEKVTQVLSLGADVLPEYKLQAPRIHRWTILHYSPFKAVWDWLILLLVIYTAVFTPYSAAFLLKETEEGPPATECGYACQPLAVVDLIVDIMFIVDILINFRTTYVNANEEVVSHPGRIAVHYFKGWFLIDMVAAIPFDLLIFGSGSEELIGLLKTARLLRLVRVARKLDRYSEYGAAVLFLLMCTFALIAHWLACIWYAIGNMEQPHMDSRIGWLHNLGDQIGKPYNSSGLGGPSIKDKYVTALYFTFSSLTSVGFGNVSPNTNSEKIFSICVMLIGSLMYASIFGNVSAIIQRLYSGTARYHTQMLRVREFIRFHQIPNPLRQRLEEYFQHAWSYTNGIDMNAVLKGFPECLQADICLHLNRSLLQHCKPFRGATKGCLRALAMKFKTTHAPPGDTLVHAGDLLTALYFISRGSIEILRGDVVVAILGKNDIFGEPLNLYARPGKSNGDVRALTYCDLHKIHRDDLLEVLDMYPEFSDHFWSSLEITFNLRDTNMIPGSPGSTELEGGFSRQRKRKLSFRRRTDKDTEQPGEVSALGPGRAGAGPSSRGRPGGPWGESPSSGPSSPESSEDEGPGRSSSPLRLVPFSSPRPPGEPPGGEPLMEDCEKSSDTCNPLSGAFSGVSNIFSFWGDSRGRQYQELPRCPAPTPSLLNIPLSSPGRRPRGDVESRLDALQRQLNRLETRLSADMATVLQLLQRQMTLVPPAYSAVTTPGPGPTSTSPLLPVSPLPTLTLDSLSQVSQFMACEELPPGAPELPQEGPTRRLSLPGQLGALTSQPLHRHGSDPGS
row,Structure (SMILES),"hERG current change (%, negative = inhibition) at 1uM"
1,COC(=O)CN1C(=O)N(c2ccccc2)C(N(O)C(=O)Nc2ccccc2)C1(C)C (stereo not shown),11.9%
2,Cc1ccc(-c2nnn(CC(=O)N(Cc3cccs3)C(C(=O)NC3CCCC3)c3ccncc3)n2)cc1 (stereo not shown),1.73%
3,COc1ccc(CCNC(=O)CCS(=O)(=O)c2ccc3c(c2)NC(=O)CS3)cc1OC,3.63%
4,CCN(Cc1ccncc1)C(=S)Nc1ccccc1,3.78%
5,COc1ccc(C)cc1S(=O)(=O)N(CC(=O)Nc1cccc([N+](=O)[O-])c1)c1ccc(C)c(C)c1,0.946%
6,Cc1noc(C)c1C(=O)N1CCc2ccccc21,0.0406%
7,Cc1c(Cl)cccc1NCC(=O)NN=C1CCCC1,12.1%
8,N#CC1=C2SCN(c3ccccc3)CN2C(=O)CC1c1c(Cl)cccc1Cl (stereo not shown),10.2%
9,CCC1(c2ccc(F)cc2)NC(=O)N(CC(=O)N(CCC#N)c2ccccc2)C1=O (stereo not shown),11.9%
10,O=C(OCN1C(=O)c2ccccc2C1=O)c1cccc(OC(F)F)c1,13.4%
11,CCOc1ccccc1CN1CCN(CCCc2ccccc2)CC1CCO (stereo not shown),-30%
12,CCCn1nnc(NC(=O)Cc2ccc(Cl)cc2)n1,11.7%
13,N#CC(c1ccc(O)cc1)N1CCCCC1 (stereo not shown),3.61%
14,COc1ccccc1-c1nnc(SCc2nc3ccccc3s2)n1C,-4.02%
15,COc1ccc(C2CC(c3ccccc3OC(=O)/C=C/c3ccccc3)=NN2C(C)=O)cc1 (stereo not shown),9.58%
16,O=C(O)C1CCCCC1C(=O)Nc1ccccc1F (stereo not shown),10.8%
17,CN(Cc1ccccc1)C(=O)c1cccc(C(=O)N(C)Cc2ccccc2)c1,4.24%
18,Cc1cc(OCC(=O)N[C@@H](CSCc2ccccc2)C(=O)O)c2c(C)c(C)c(=O)oc2c1,12.1%
19,O=C(c1cncc(Br)c1)N1CCc2ccccc2C1,-9.01%
20,C/C(=N\NC(=O)c1ccc2ccccc2c1)c1cccs1,12.8%
21,CC(C(=O)O)N1c2cccc3cccc(c23)S1(=O)=O (stereo not shown),3.6%
22,O=[N+]([O-])c1ccccc1Sc1nccn1Cc1ccccc1,0.444%

row,Structure (SMILES),"hERG current change (%, negative = inhibition) at 1uM"
1,CC(=O)N1CCN(C(=O)c2ccc3c(c2)OCCO3)CC1,9.73%
2,CC(C)CC(=O)Nc1ccc2oc(-c3cccnc3)nc2c1,15.3%
3,O=C(NC(=S)Nc1ccccc1Cl)c1cnn2c(C(F)(F)F)cc(C(F)(F)F)nc12,7.88%
4,COc1ccc(NC(=O)c2cc(-c3ccc(C)o3)nc3ccccc23)cc1OC,10.2%
5,COc1cccc(N2CCN(C(=O)CNC(=O)c3sc4ccccc4c3Cl)CC2)c1,8.64%
6,Cl.FC(F)(F)c1cccc(Nc2ncnc3ccccc23)c1,4.9%
7,CCOc1ccc(NC(=O)CN(C)CC(=O)Nc2cc(Cl)ccc2C#N)cc1OCC,8.26%
8,N#C/C(=C\c1cccc([N+](=O)[O-])c1)C(=O)Nc1cccnc1,9.66%
9,CCOC(=O)c1c(C)nc2sc3c(=O)n(-c4ccc(C(C)=O)cc4)nnc3c2c1-c1ccc(Cl)cc1,3.19%
10,CN1C(=O)c2ccccc2NC(=O)[C@]12O[C@@H]2c1cccc(O)c1,10.6%
11,COc1cc(C(=O)OCC(=O)Nc2ccc(C(C)=O)cc2)ccc1OCC(=O)N1CCOCC1,13%
12,CCOC(=O)CN(C(=O)CSc1nnc2c(n1)[nH]c1ccc(OC)cc12)c1ccc(F)cc1,-8.26%
13,COc1ccc(-c2nnc(SCC(=O)Nc3ccc(C(=O)O)cc3)n2-c2ccc(Cl)cc2)cc1,13.4%
14,COCCN1Cc2cccc(C(=O)Nc3ccc(S(=O)(=O)N4CCOCC4)cc3)c2C1=O,2.25%
15,Cc1cc(C)c2nc(N3CCC(C(=O)N4CCN(c5ncccn5)CC4)CC3)sc2c1,6.68%
16,O=C1S/C(=C/c2ccccc2F)C(=O)N1CCN=C1NS(=O)(=O)c2ccccc21,12.3%
17,CCN(CC(=O)Nc1ccc(NC(C)=O)cc1)C(=O)CN1C(=O)C2CCCCC2C1=O (stereo not shown),12.4%
18,O=[N+]([O-])c1ccc(/C=C/C2=NN(c3ccccc3)C(c3ccco3)C2)cc1 (stereo not shown),18%
19,Cc1nn(Cc2ccccc2)c(C)c1NC(=O)c1cc2nc(-c3ccco3)cc(C(F)(F)F)n2n1,4.45%
20,COc1ccc(CN2C(=O)c3cccnc3C2=O)cc1S(=O)(=O)NC(C)C,12.4%
21,CCCc1nc2ccccc2n1Cc1ccccc1OC,3.43%
